# Assay results from the supplement of paper PMC8728848.
# The other results are listed elsewhere or left out.
# B1: TIM1 (protein)
# chain: ADGIQSVKVGGEAGPSVTLPCHYSGAVTSMCWNRGSCSLFTCQNGIVWTNGTHVTYRKDTRYKLLGDLSRRDVSLTIENTAVSDSGVYCCRVEHRGWFNDMKITVSLEIVPPHHHHHH
# Legend:
# Test in all cases: glycan array binding signal (z-score within array); higher = stronger binding
# Conditions in all cases: glycan notation: IUPAC condensed, linker removed
# [1] = target: Neu5Ac(a2-3)Gal(b1-3)[Fuc(a1-4)]GlcNAc
# Procedure, shortened: (§1)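 Glycan array data were curated from 3228 arrays in the Consortium for Functional Glycomics database and kept only where the protein sequence was available. Glycan names were converted to IUPAC-condensed notation, and columns mapping to the same glycan were averaged. The binding signal is a within-array Z-score, averaged across arrays of the same protein sequence at different concentrations or buffers and across linkers. Negative Z-scores can be read as non-binding.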
# [2] = target: Neu5Ac(a2-3)Gal(b1-3)[Fuc(a1-4)]GlcNAc(b1-3)Gal(b1-3)[Fuc(a1-4)]GlcNAc
# Procedure, shortened: as §1
# [3] = target: Neu5Ac(a2-3)Gal(b1-3)[Fuc(a1-4)]GlcNAc(b1-3)Gal(b1-4)[Fuc(a1-3)]GlcNAc
# Procedure, shortened: as §1
# [4] = target: Neu5Ac(a2-3)Gal(b1-3)[GlcNAc(b1-6)]GalNAc
# Procedure, shortened: as §1
# [5] = target: Neu5Ac(a2-3)Gal(b1-3)[Neu5Ac(a2-6)]GalNAc
# Procedure, shortened: as §1
# [6] = target: Neu5Ac(a2-3)Gal(b1-3)[Neu5Ac(a2-6)]GlcNAc(b1-3)[Fuc(a1-3)[Gal(b1-4)]GlcNAc(b1-6)]Gal(b1-4)Glc
# Procedure, shortened: as §1
# [7] = target: Neu5Ac(a2-3)Gal(b1-3)]Neu5Ac(a2-3)Gal(b1-4)]GlcNAc
# Procedure, shortened: as §1
# Neu5Ac(a2-3)Gal(b1-4)Glc = target: Neu5Ac(a2-3)Gal(b1-4)Glc
# Procedure, shortened: as §1
# [8] = target: Neu5Ac(a2-3)Gal(b1-4)GlcNAc
# Procedure, shortened: as §1
# [9] = target: Neu5Ac(a2-3)Gal(b1-4)GlcNAc(b1-2)Man
# Procedure, shortened: as §1
# [10] = target: Neu5Ac(a2-3)Gal(b1-4)GlcNAc(b1-2)Man(a1-3)[GlcNAc(b1-4)][Neu5Ac(a2-3)Gal(b1-4)GlcNAc(b1-2)Man(a1-6)]Man(b1-4)GlcNAc(b1-4)GlcNAc
# Procedure, shortened: as §1
# [11] = target: Neu5Ac(a2-3)Gal(b1-4)GlcNAc(b1-2)Man(a1-3)[Neu5Ac(a2-3)Gal(b1-4)GlcNAc(b1-2)Man(a1-6)]Man(b1-4)GlcNAc(b1-4)GlcNAc
# Procedure, shortened: as §1
# [12] = target: Neu5Ac(a2-3)Gal(b1-4)GlcNAc(b1-2)Man(a1-3)[Neu5Ac(a2-3)Gal(b1-4)GlcNAc(b1-2)Man(a1-6)]Man(b1-4)GlcNAc(b1-4)[Fuc(a1-6)]GlcNAc
# Procedure, shortened: as §1
# [13] = target: Neu5Ac(a2-3)Gal(b1-4)GlcNAc(b1-2)Man(a1-3)[Neu5Ac(a2-6)Gal(b1-4)GlcNAc(b1-2)Man(a1-6)]Man(b1-4)GlcNAc(b1-4)GlcNAc
# Procedure, shortened: as §1
# [14] = target: Neu5Ac(a2-3)Gal(b1-4)GlcNAc(b1-2)[Neu5Ac(a2-3)Gal(b1-4)GlcNAc(b1-4)]Man(a1-3)[GlcNAc(b1-4)][Neu5Ac(a2-3)Gal(b1-4)GlcNAc(b1-2)[Neu5Ac(a2-3)Gal(b1-4)GlcNAc(b1-6)]Man(a1-6)]Man(b1-4)GlcNAc(b1-4)GlcNAc
# Procedure, shortened: as §1
# [15] = target: Neu5Ac(a2-3)Gal(b1-4)GlcNAc(b1-2)[Neu5Ac(a2-3)Gal(b1-4)GlcNAc(b1-4)]Man(a1-3)[GlcNAc(b1-4)][Neu5Ac(a2-3)Gal(b1-4)GlcNAc(b1-4)Man(a1-6)]Man(b1-4)GlcNAc(b1-4)GlcNAc
# Procedure, shortened: as §1
# [16] = target: Neu5Ac(a2-3)Gal(b1-4)GlcNAc(b1-2)[Neu5Ac(a2-3)Gal(b1-4)GlcNAc(b1-6)]Man(a1-6)[Neu5Ac(a2-3)Gal(b1-4)GlcNAc(b1-2)Man(a1-3)]Man(b1-4)GlcNAc(b1-4)GlcNAc
# Procedure, shortened: as §1
# [17] = target: Neu5Ac(a2-3)Gal(b1-4)GlcNAc(b1-2)[Neu5Ac(a2-3)Gal(b1-4)GlcNAc(b1-6)]Man(a1-6)[Neu5Ac(a2-3)Gal(b1-4)GlcNAc(b1-2)Man(a1-3)][GlcNAc(b1-4)]Man(b1-4)GlcNAc(b1-4)GlcNAc
# Procedure, shortened: as §1
# [18] = target: Neu5Ac(a2-3)Gal(b1-4)GlcNAc(b1-3)Gal
# Procedure, shortened: as §1
# [19] = target: Neu5Ac(a2-3)Gal(b1-4)GlcNAc(b1-3)Gal(b1-3)GlcNAc
# Procedure, shortened: as §1
# [20] = target: Neu5Ac(a2-3)Gal(b1-4)GlcNAc(b1-3)Gal(b1-4)GlcNAc
# Procedure, shortened: as §1
# [21] = target: Neu5Ac(a2-3)Gal(b1-4)GlcNAc(b1-3)Gal(b1-4)GlcNAc(b1-2)Man(a1-3)[Neu5Ac(a2-3)Gal(b1-4)GlcNAc(b1-3)Gal(b1-4)GlcNAc(b1-2)Man(a1-6)]Man(b1-4)GlcNAc(b1-4)GlcNAc
# Procedure, shortened: as §1
# [22] = target: Neu5Ac(a2-3)Gal(b1-4)GlcNAc(b1-3)Gal(b1-4)GlcNAc(b1-3)Gal(b1-4)GlcNAc
# Procedure, shortened: as §1
# [23] = target: Neu5Ac(a2-3)Gal(b1-4)GlcNAc(b1-3)Gal(b1-4)GlcNAc(b1-3)Gal(b1-4)GlcNAc(b1-2)Man(a1-3)[Neu5Ac(a2-3)Gal(b1-4)GlcNAc(b1-3)Gal(b1-4)GlcNAc(b1-3)Gal(b1-4)GlcNAc(b1-2)Man(a1-6)]GalNAc
# Procedure, shortened: as §1
# [24] = target: Neu5Ac(a2-3)Gal(b1-4)GlcNAc(b1-3)Gal(b1-4)GlcNAc(b1-3)GalNAc
# Procedure, shortened: as §1
# [25] = target: Neu5Ac(a2-3)Gal(b1-4)GlcNAc(b1-3)Gal(b1-4)GlcNAc(b1-3)[Neu5Ac(a2-3)Gal(b1-4)GlcNAc(b1-3)Gal(b1-4)GlcNAc(b1-6)]GalNAc
# Procedure, shortened: as §1
# [26] = target: Neu5Ac(a2-3)Gal(b1-4)GlcNAc(b1-3)Gal(b1-4)GlcNAc(b1-6)[Gal(b1-3)]GalNAc
# Procedure, shortened: as §1
# [27] = target: Neu5Ac(a2-3)Gal(b1-4)GlcNAc(b1-3)Gal(b1-4)[Fuc(a1-3)]GlcNAc
# Procedure, shortened: as §1
# [28] = target: Neu5Ac(a2-3)Gal(b1-4)GlcNAc(b1-3)GalNAc
# Procedure, shortened: as §1
# [29] = target: Neu5Ac(a2-3)Gal(b1-4)GlcNAc(b1-3)[Neu5Ac(a2-3)Gal(b1-4)GlcNAc(b1-6)]GalNAc
# Procedure, shortened: as §1
# [30] = target: Neu5Ac(a2-3)Gal(b1-4)GlcNAc(b1-6)GalNAc
# Procedure, shortened: as §1
# [31] = target: Neu5Ac(a2-3)Gal(b1-4)GlcNAc(b1-6)[Gal(b1-3)]GalNAc
# Procedure, shortened: as §1
# [32] = target: Neu5Ac(a2-3)Gal(b1-4)GlcNAc(b1-6)[Neu5Ac(a2-3)Gal(b1-3)]GalNAc
# Procedure, shortened: as §1
# [33] = target: Neu5Ac(a2-3)Gal(b1-4)GlcNAc6S
# Procedure, shortened: as §1
# [34] = target: Neu5Ac(a2-3)Gal(b1-4)[Fuc(a1-3)]GlcNAc
# Procedure, shortened: as §1
# [35] = target: Neu5Ac(a2-3)Gal(b1-4)[Fuc(a1-3)]GlcNAc(b1-2)Man
# Procedure, shortened: as §1
# [36] = target: Neu5Ac(a2-3)Gal(b1-4)[Fuc(a1-3)]GlcNAc(b1-3)Gal
# Procedure, shortened: as §1
# [37] = target: Neu5Ac(a2-3)Gal(b1-4)[Fuc(a1-3)]GlcNAc(b1-3)Gal(b1-4)GlcNAc
# Procedure, shortened: as §1
# [38] = target: Neu5Ac(a2-3)Gal(b1-4)[Fuc(a1-3)]GlcNAc(b1-3)Gal(b1-4)[Fuc(a1-3)]GlcNAc(b1-3)Gal(b1-4)[Fuc(a1-3)]GlcNAc
# Procedure, shortened: as §1
# [39] = target: Neu5Ac(a2-3)Gal(b1-4)[Fuc(a1-3)]GlcNAc(b1-3)GalNAc
# Procedure, shortened: as §1
# [40] = target: Neu5Ac(a2-3)Gal(b1-4)[Fuc(a1-3)]GlcNAc(b1-6)[Gal(b1-3)]GalNAc
# Procedure, shortened: as §1
# [41] = target: Neu5Ac(a2-3)Gal(b1-4)[Fuc(a1-3)]GlcNAc(b1-6)[Neu5Ac(a2-3)Gal(b1-3)]GalNAc
# Procedure, shortened: as §1
# [42] = target: Neu5Ac(a2-3)Gal(b1-4)[Fuc(a1-3)]GlcNAc6S
# Procedure, shortened: as §1
# [43] = target: Neu5Ac(a2-3)Gal6S(b1-4)GlcNAc
# Procedure, shortened: as §1
# [44] = target: Neu5Ac(a2-3)Gal6S(b1-4)[Fuc(a1-3)]GlcNAc
# Procedure, shortened: as §1
binder,measurement,setting,value
B1,glycan array binding signal (z-score),[1],-0.229
same,glycan array binding signal (z-score),[2],-0.006
same,glycan array binding signal (z-score),[3],-0.201
same,glycan array binding signal (z-score),[4],-0.219
same,glycan array binding signal (z-score),[5],-0.095
same,glycan array binding signal (z-score),[6],-0.259
same,glycan array binding signal (z-score),[7],-0.226
same,glycan array binding signal (z-score),Neu5Ac(a2-3)Gal(b1-4)Glc,0.916
same,glycan array binding signal (z-score),[8],-0.262
same,glycan array binding signal (z-score),[9],0.197
same,glycan array binding signal (z-score),[10],-0.169
same,glycan array binding signal (z-score),[11],-0.26
same,glycan array binding signal (z-score),[12],-0.132
same,glycan array binding signal (z-score),[13],-0.252
same,glycan array binding signal (z-score),[14],-0.288
same,glycan array binding signal (z-score),[15],-0.276
same,glycan array binding signal (z-score),[16],-0.172
same,glycan array binding signal (z-score),[17],-0.272
same,glycan array binding signal (z-score),[18],-0.298
same,glycan array binding signal (z-score),[19],-0.249
same,glycan array binding signal (z-score),[20],-0.192
same,glycan array binding signal (z-score),[21],1.02
same,glycan array binding signal (z-score),[22],-0.238
same,glycan array binding signal (z-score),[23],4.84
same,glycan array binding signal (z-score),[24],-0.303
same,glycan array binding signal (z-score),[25],-0.113
same,glycan array binding signal (z-score),[26],-0.117
same,glycan array binding signal (z-score),[27],-0.257
same,glycan array binding signal (z-score),[28],-0.232
same,glycan array binding signal (z-score),[29],-0.117
same,glycan array binding signal (z-score),[30],-0.189
same,glycan array binding signal (z-score),[31],-0.071
same,glycan array binding signal (z-score),[32],-0.294
same,glycan array binding signal (z-score),[33],-0.181
same,glycan array binding signal (z-score),[34],-0.079
same,glycan array binding signal (z-score),[35],-0.204
same,glycan array binding signal (z-score),[36],-0.217
same,glycan array binding signal (z-score),[37],-0.095
same,glycan array binding signal (z-score),[38],-0.102
same,glycan array binding signal (z-score),[39],0.198
same,glycan array binding signal (z-score),[40],0.854
same,glycan array binding signal (z-score),[41],0.165
same,glycan array binding signal (z-score),[42],-0.205
same,glycan array binding signal (z-score),[43],-0.241
same,glycan array binding signal (z-score),[44],-0.189
